Hit rate of the full screen: of about 2,000 compounds, about 110 (5.5%) showed an effect of 50% or more. This is one part of the list.
Molecular target: Genome polyprotein (dengue virus type 2) (UniProt P29990)
[1] = Thailand/16681/1984, Concentration 25.0 uM, Number of replicates 1.0

Q: Which results are given for O=C(Nc1cccc2cccnc12)C1CCNCC1?
A: inhibition (Thailand/16681/1984, Concentration 49.95 uM, Number of replicates 2.0, Standard deviation 0.4211783883506398 %): -0.871%; inhibition (Thailand/16681/1984, Concentration 99.9 uM, Number of replicates 2.0, Standard deviation 1.2273405052219766 %): 51.5%

Q: Which results are given for c1ccc(COC2CCN(Cc3c[nH]c4ccccc34)CC2)cc1?
A: inhibition (Thailand/16681/1984, Concentration 49.5 uM, Number of replicates 2.0, Standard deviation 1.9694385272729356 %): -2.63%; inhibition (Thailand/16681/1984, Concentration 99.01 uM, Number of replicates 2.0, Standard deviation 2.1816894241710703 %): -1.85%; inhibition (Thailand/16681/1984, Concentration 198.0 uM, Number of replicates 2.0, Standard deviation 1.7282646927589878 %): -0.28%

Q: What does the source list for O=c1[nH]cc(Cl)cc1CN1CC[C@H](c2c[nH]c3ccccc23)C1?
A: inhibition (Thailand/16681/1984, Concentration 49.5 uM, Number of replicates 2.0, Standard deviation 3.728364673001962 %): -1.21%; inhibition (Thailand/16681/1984, Concentration 99.01 uM, Number of replicates 2.0, Standard deviation 4.129330739359081 %): -0.318%; inhibition (Thailand/16681/1984, Concentration 198.0 uM, Number of replicates 2.0, Standard deviation 4.448768616306302 %): 0.518%

Q: With O=Cc1ccc(N2CCC(C(=O)NCCc3ccc4ccccc4c3)CC2)cc1 as the molecule, how does the inhibition [1] read?
A: 12.2%

Q: For Cc1cc(CO)c2cccc(Nc3cc(O)[nH]n3)c2n1, which inhibition (Thailand/16681/1984, Concentration 49.95 uM, Number of replicates 2.0, Standard deviation 1.1262325758678584 %) is on record?
A: 32.3%

Q: And the inhibition (Thailand/16681/1984, Concentration 99.9 uM, Number of replicates 2.0, Standard deviation 0.556697154318326 %)?
A: 51.5%

Q: Which inhibition [1] does the source give for O=Cc1ccc(N2CCC(C(=O)NCCc3cc(Cl)ccc3Cl)CC2)cc1 here?
A: 4.25%

Q: How did the inhibition (Thailand/16681/1984, Concentration 49.95 uM, Number of replicates 2.0, Standard deviation 1.6595858552014553 %) turn out when Cc1cc(CO)c2cccc(Cc3ccccc3NC(=O)c3ccc(-c4ccccn4)s3)c2n1 was run?
A: -1.78%

Q: And the inhibition (Thailand/16681/1984, Concentration 99.9 uM, Number of replicates 2.0, Standard deviation 1.4560320447872408 %)?
A: 1.44%

Q: For NCc1cccc(NC(=O)[C@H]2C[C@@H](NC(=O)OCc3ccccc3)C2)c1, which inhibition (Thailand/16681/1984, Concentration 49.5 uM, Number of replicates 2.0, Standard deviation 3.726181466249098 %) is on record?
A: -3.83%

Q: What about the inhibition (Thailand/16681/1984, Concentration 99.01 uM, Number of replicates 2.0, Standard deviation 3.7742381458581895 %) of the same molecule?
A: -4.52%

Q: What about the inhibition (Thailand/16681/1984, Concentration 198.0 uM, Number of replicates 2.0, Standard deviation 3.3297129743902736 %) of the same molecule?
A: -5.43%

Q: How did the inhibition [1] turn out when O=Cc1ccc(N2CCC(C(=O)NCc3cccc(Cl)c3Cl)CC2)cc1 was run?
A: 13.1%

Q: How did the inhibition (Thailand/16681/1984, Concentration 99.5 uM, Number of replicates 2.0, Standard deviation 0.04165727071859149 %) turn out when N#Cc1cccc(-c2nc3c(C(=O)Nc4cccnc4)cc(Cl)cc3[nH]2)c1 was run?
A: 7.45%

Q: What about the inhibition (Thailand/16681/1984, Concentration 295.6 uM, Number of replicates 2.0, Standard deviation 4.418006643102565 %) of the same molecule?
A: 20.3%

Q: Which inhibition (Thailand/16681/1984, Concentration 49.5 uM, Number of replicates 2.0, Standard deviation 0.5577395301756973 %) does the source give for NC(=O)c1ccc(CNC(=O)NCCc2ccc(OCc3ccccc3)cc2)cc1 here?
A: -1.78%

Q: What about the inhibition (Thailand/16681/1984, Concentration 99.01 uM, Number of replicates 2.0, Standard deviation 1.0648622968700545 %) of the same molecule?
A: -1.61%

Q: And the inhibition (Thailand/16681/1984, Concentration 198.0 uM, Number of replicates 2.0, Standard deviation 0.1126939294223689 %)?
A: -0.94%

Q: Which inhibition [1] does the source give for Cc1cc(NC(=O)C2CCN(c3ccc(C=O)cc3)CC2)c(F)cc1Br here?
A: 15.8%

Q: O=Cc1ccc(N2CCC(C(=O)N(CC(F)(F)F)CC(F)(F)F)CC2)cc1 was tested. Which inhibition [1] did it give?
A: 10.3%

Q: With CN(C)CCN(Cc1ccccc1)C(=O)C1CCN(c2ccc(C=O)cc2)CC1 as the molecule, how does the inhibition [1] read?
A: 15.1%

Q: What does the source list for CCc1cc(C)nc(C2CCN(Cc3c[nH]c4ccccc34)CC2)n1?
A: inhibition (Thailand/16681/1984, Concentration 49.5 uM, Number of replicates 2.0, Standard deviation 0.5385296709740081 %): 0.046%; inhibition (Thailand/16681/1984, Concentration 99.01 uM, Number of replicates 2.0, Standard deviation 1.0618023724478907 %): 0.432%; inhibition (Thailand/16681/1984, Concentration 198.0 uM, Number of replicates 2.0, Standard deviation 1.4139495966608713 %): 1.68%

Q: Which inhibition (Thailand/16681/1984, Concentration 49.5 uM, Number of replicates 2.0, Standard deviation 4.603470646814268 %) does the source give for c1ccc(C2CCN(Cc3c[nH]c4ccccc34)CC2)nc1 here?
A: -1.34%

Q: And the inhibition (Thailand/16681/1984, Concentration 99.01 uM, Number of replicates 2.0, Standard deviation 4.546574592960684 %)?
A: 0.417%

Q: And the inhibition (Thailand/16681/1984, Concentration 198.0 uM, Number of replicates 2.0, Standard deviation 4.978090128111347 %)?
A: 2.87%

Q: For CN(C[C@H](O)[C@@H](O)[C@H](O)[C@H](O)CO)C(=O)C1CCN(c2ccc(C=O)cc2)CC1, which inhibition [1] is on record?
A: 9.51%

Q: Cc1cc(CO)c2cccc(CC(=O)NCCN3CCOCC3)c2n1 was tested. Which inhibition (Thailand/16681/1984, Concentration 99.9 uM, Number of replicates 2.0, Standard deviation 2.2245511253795573 %) did it give?
A: -9.04%

Q: For Cc1ccsc1CN(CC(C)C)C(=O)C1CCN(c2ccc(C=O)cc2)CC1, which inhibition [1] is on record?
A: 16.4%

Q: For COc1ccc(F)cc1-c1ccccc1C(=O)Nc1cnn(C)c1, which inhibition (Thailand/16681/1984, Concentration 49.5 uM, Number of replicates 2.0, Standard deviation 2.2581672831644526 %) is on record?
A: -4.25%

Q: And the inhibition (Thailand/16681/1984, Concentration 99.01 uM, Number of replicates 2.0, Standard deviation 1.9365380229757554 %)?
A: -2.49%

Q: What about the inhibition (Thailand/16681/1984, Concentration 198.0 uM, Number of replicates 2.0, Standard deviation 2.756548372009165 %) of the same molecule?
A: -2.95%

Q: Which inhibition [1] does the source give for O=Cc1ccc(N2CCC(C(=O)N3CCC(=C4c5ccc(Cl)cc5CCc5cccnc54)CC3)CC2)cc1 here?
A: -7.77%

Q: What does the source list for Cc1cc(CO)c2cccc(Cc3ccccc3NC(=O)Cc3nnc(C)[nH]3)c2n1?
A: inhibition (Thailand/16681/1984, Concentration 49.95 uM, Number of replicates 2.0, Standard deviation 1.0489246346930539 %): 2.09%; inhibition (Thailand/16681/1984, Concentration 99.9 uM, Number of replicates 2.0, Standard deviation 0.8121374020252716 %): 10.7%

Q: With CC(=O)N[C@@H](Cc1ccc(O)cc1)C(=O)Nc1cccc2c(CO)cc(C)nc12 as the molecule, how does the inhibition (Thailand/16681/1984, Concentration 49.95 uM, Number of replicates 2.0, Standard deviation 2.4752459751189644 %) read?
A: -9.17%

Q: What about the inhibition (Thailand/16681/1984, Concentration 99.9 uM, Number of replicates 2.0, Standard deviation 3.123465853915667 %) of the same molecule?
A: -9.54%

Q: Which inhibition (Thailand/16681/1984, Concentration 49.95 uM, Number of replicates 2.0, Standard deviation 2.0722319933927014 %) does the source give for Cc1cc(CO)c2cccc(Cc3cccc(NC(=O)C4(C(N)=O)CC4)c3)c2n1 here?
A: -2.83%

Q: And the inhibition (Thailand/16681/1984, Concentration 99.9 uM, Number of replicates 2.0, Standard deviation 1.5321916950743657 %)?
A: 5.38%
